# Among all 310,000 compounds or so, about 14,000 (4.5%) showed an effect of 50% or more. Effects have a minus sign here. The list shows a part of the results.
# Target: human ether-à-go-go-related gene (hERG) potassium channel (human, UniProt Q12809)
# Test: primary screen, population patch clamp on CHO cells stably expressing hERG
# 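Further: peak tail current of the secondary pulse compared with the same well before compound.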
# human ether-à-go-go-related gene (hERG) potassium channel, sequence (Q12809 whole entry, looked up): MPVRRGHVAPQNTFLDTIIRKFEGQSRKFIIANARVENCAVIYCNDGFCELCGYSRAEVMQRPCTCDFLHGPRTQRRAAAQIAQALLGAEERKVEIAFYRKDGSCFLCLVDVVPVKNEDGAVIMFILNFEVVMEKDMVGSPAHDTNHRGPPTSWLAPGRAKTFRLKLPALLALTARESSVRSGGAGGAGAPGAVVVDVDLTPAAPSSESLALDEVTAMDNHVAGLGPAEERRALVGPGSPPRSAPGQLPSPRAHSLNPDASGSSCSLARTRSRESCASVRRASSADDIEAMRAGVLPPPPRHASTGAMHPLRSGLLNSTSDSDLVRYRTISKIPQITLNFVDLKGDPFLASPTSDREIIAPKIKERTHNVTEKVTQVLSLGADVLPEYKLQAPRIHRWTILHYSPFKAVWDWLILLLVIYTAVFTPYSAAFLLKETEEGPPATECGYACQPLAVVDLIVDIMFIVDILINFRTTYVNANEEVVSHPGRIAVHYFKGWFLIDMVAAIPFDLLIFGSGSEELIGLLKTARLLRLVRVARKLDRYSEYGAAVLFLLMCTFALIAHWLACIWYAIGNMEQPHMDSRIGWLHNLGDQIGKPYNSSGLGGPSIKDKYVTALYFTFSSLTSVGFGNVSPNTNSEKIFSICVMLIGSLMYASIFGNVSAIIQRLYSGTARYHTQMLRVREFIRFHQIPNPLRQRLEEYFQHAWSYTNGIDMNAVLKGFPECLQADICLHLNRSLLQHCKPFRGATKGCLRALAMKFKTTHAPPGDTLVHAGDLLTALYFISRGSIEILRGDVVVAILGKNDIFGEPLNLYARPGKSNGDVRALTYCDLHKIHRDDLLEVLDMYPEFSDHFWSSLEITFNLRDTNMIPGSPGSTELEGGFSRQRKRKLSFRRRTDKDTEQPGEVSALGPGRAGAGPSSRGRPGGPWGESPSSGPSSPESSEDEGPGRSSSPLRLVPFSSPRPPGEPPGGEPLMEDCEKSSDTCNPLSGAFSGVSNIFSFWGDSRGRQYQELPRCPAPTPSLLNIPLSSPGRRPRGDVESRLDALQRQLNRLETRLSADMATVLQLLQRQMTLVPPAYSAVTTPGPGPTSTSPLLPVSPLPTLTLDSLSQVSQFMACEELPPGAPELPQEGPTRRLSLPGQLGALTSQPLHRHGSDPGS
row,SMILES,"hERG current change (%, negative = inhibition) at 10uM [%]"
1,COc1ccc(C(CC(=O)N2CCCCC2)c2c(OC)cc(OC)c3c(-c4ccccc4)cc(=O)oc23)cc1 (stereo not shown),0.849
2,COC(=O)c1cc(C(=O)OCC(=O)N(C)c2ccccc2)cc([N+](=O)[O-])c1,-19.5
3,COc1ccc(N2CCN(c3oc(-c4ccco4)nc3C#N)CC2)cc1,-47.9
4,Cc1ccc(N(CCC#N)C(=O)COC(=O)C2=COCCO2)cc1,2.46
5,Cc1ccc(-c2nc3ccccn3c2NC(=O)c2ccco2)cc1,-12
6,Cc1ccc(S(=O)(=O)N2C(=O)CCC2C(=O)N2CCN(C)CC2)cc1 (stereo not shown),0.859
7,CCc1ccc(C(C)NC(=O)/C(C#N)=C\c2cn[nH]c2-c2ccccc2)cc1 (stereo not shown),-1.91
8,Cc1cc(NC(=O)CSc2nnc(-c3ccc(Cl)s3)o2)no1,5.01
9,O=C(NS(=O)(=O)Oc1cccc(F)c1)OC[C@@H]1CCCN2CCCCC12 (stereo partly shown),15.7
10,COc1ccc(C(=O)O/N=C(/c2ccccc2)c2ccncc2)cc1,29.8
11,Nc1ccc(NC(=O)CCN2CCOCC2)cc1,9.85
12,COc1ccc(C(=O)NCC(=O)N2CCCC(C)C2)cc1OC (stereo not shown),12.6
13,O=C(NCc1ccco1)c1ccccc1Br,7.63
14,O=C(Nc1nccs1)C1CCN(S(=O)(=O)c2c(Cl)cccc2Cl)CC1,-22.1
15,O=C(c1ccc([N+](=O)[O-])cc1)N(Cc1ccccc1)c1ccccn1,3.04
16,Cc1ccc(OCC(=O)N/N=C\c2cccn2C)c([N+](=O)[O-])c1,-8.65
17,Cc1ccc2c(c1)c1c(n2CC(O)CNC(CO)(CO)CO)CCCC1 (stereo not shown),0.531
18,COC(=O)N/N=C/c1cc(Cl)c(OCc2ccccc2F)c(OC)c1,6.02
19,Cc1nc([N+](=O)[O-])c(Br)n1CC(=O)c1ccc(Cl)cc1,-18
20,CC(C)(C)C(=O)NC(=S)Nc1cc(C(F)(F)F)ccc1N1CCOCC1,-1.98
21,CC1CCC(NC(=O)c2cc(S(=O)(=O)N3CCCCC3)c[nH]2)CC1 (stereo not shown),-9.4
22,O=C(c1cc(-c2ccc(Cl)cc2)n(-c2ccc(Cl)cc2Cl)n1)N1CCOCC1,-79.6
23,Cc1cc(NS(=O)(=O)c2ccc(NC(=O)c3cc4cc(Br)ccc4oc3=O)cc2)no1,6.17
24,O=C(O)C1C(C(=O)Nc2ccc(Cl)cc2)C2C=CC1C21CC1 (stereo not shown),7.32
25,NS(=O)(=O)c1ccc(N=Nc2ccc(=O)[nH]c2O)cc1,18.4
26,Cc1ccc(S(=O)(=O)Nc2ccc3c(c2)CCC3)cc1C,-3.9
27,CCN(CC)S(=O)(=O)c1ccc(C(=O)NCc2ccc3[nH]c4c(c3c2)CCCC4)cc1,15.3
28,Cc1ccn2c(-c3n[nH]c(=S)n3Cc3ccccc3)c(C)nc2c1,5.92

row,SMILES,"hERG current change (%, negative = inhibition) at 10uM [%]"
1,CC(C)C(=O)Nc1ccccc1Cc1ccccc1,13
2,COc1ccc(N(Cc2cc(=O)[nH]c3ccccc23)C(=O)CCl)cc1,5.27
3,COc1cc(OC)c(S(=O)(=O)NC(C)C)cc1C(=O)O,4.39
4,C=CCn1cc(C(=O)NCCCOC)c(=O)c2cc(S(=O)(=O)N3CCC(C)CC3)ccc21,-32.9
5,CC1(C)CC(=O)C(Sc2nnc(-c3ccc(NS(C)(=O)=O)cc3)n2Cc2ccco2)C(=O)C1,19.5
6,Cn1nc2c3ccccc3n(Cc3ccc(F)cc3)c2nc1=S,-2.76
7,CCCCc1ccc(S(N)(=O)=O)cc1,15.7
8,NC(=O)c1ccc(C(F)(F)F)n(Cc2ccc(F)c(F)c2)c1=O,39.4
9,CC(NCc1cc(Br)ccc1OCC(=O)NCc1ccccc1)c1ccccc1.Cl (stereo not shown),-59.6
10,O=C(NCc1ccco1)C(c1cccnc1)N(C(=O)Cn1nnc2ccccc21)c1ccccc1 (stereo not shown),0.317
11,O=C(O)CCC(=O)N1CCN(S(=O)(=O)c2ccc3ccccc3c2)CC1,25.6
12,O=C(CCC(=O)N1CCOc2ccc(Cl)cc21)NCCCN1CCN(Cc2ccccc2)CC1,-73.2
13,CN1CCN(C(=O)c2cc3c(ccc4ccccc43)oc2=O)CC1,5.69
14,COc1cccc(CNC(=O)CN2C(=O)COc3ccc(S(=O)(=O)N4CCC(C)CC4)cc32)c1,1.64
15,O=C1c2ccccc2C(=O)N1OCc1ccccc1,11.1
16,COc1ccc(NC(=O)Nc2cc(NC(=O)Nc3ccc(OC)cc3)c(C)nc2C)cc1,21.8
17,CC(C)OC(=O)CSc1nnc(-c2ccncc2)n1N,18.5
18,CCOC(=O)c1c(C)[nH]c(C)c1C(=O)CSc1nc2ccccc2c(=O)n1-c1ccc(F)cc1,-8.56
19,O=C(NCCS(=O)(=O)NCCc1ccccc1)c1ccccc1,-14.2
20,C(=N\N1CCN(Cc2cccc3ccccc23)CC1)/c1cccs1,-7
21,CCn1c(=O)n(Cc2ccco2)c(=N)c2c3c(sc21)COC(C)(C)C3,-28
22,CCC(C)(C)n1nnnc1C(c1cc2ccc(OC)cc2[nH]c1=O)N1CCc2ccccc2C1 (stereo not shown),-27.9
23,CCN(c1ccccc1)S(=O)(=O)c1ccc(C(=O)NCC2(N(C)C)CCCCC2)cc1,-57.8
24,C#Cc1ccc([C@@H]2C=C(C(=O)Nc3ccccc3)O[C@H](OCC)[C@H]2CCCO)cc1,-22.2
25,Cn1c2ccccc2c2nnc(SCC(=O)NCc3ccoc3)nc21,-1.99
26,COC(=O)c1cc(-c2c(-c3ccc4c(c3)OCO4)noc2-c2ccsc2)cc([N+](=O)[O-])c1,10.7
27,COc1ccccc1NC(=O)N(Cc1ccccc1)c1ccccn1,17.3
